Results on 26 sequences are retold here after the supplement of paper PMC7726561.

The full ranking holds about 1,100 sequences; the median of “thermal melting temperature (Tm) of peptide-HLA complex” is about 58, and the lowest 2% start at about 42. The list shows a part of the results.
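Further: cell lysates heated 10 min at 37–73 °C, remaining pHLA pulled down with pan-class I antibody, peptides quantified by DIA-MS versus 37 °C, Tm where half the complex is lost.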

For this test, the target named is HLA-A*02:01. The experiment in a line: thermal melting temperature (Tm) of peptide-HLA complex; higher = more thermostable pHLA complex. Particulars: C1R-A*02:01.
Consider KQVSDLISV, for which the thermal melting temperature was 54.3 °C. Sequence HLLSDELLL gave a thermal melting temperature of 56.8 °C.

In the case of ILDAGGHNV, the thermal melting temperature came out at 55.9 °C.

As to GLNEEIARV, the thermal melting temperature is 64 °C.

For the sequence GLYDSQNPPTV, the thermal melting temperature was found to be 59.7 °C. QLPNFAFSV displayed a thermal melting temperature of 55.3 °C. Take ILINDAGEVRL: the thermal melting temperature was 56.1 °C. FLLPHPGLQV returned a thermal melting temperature of 62.8 °C.

Turning to FLNNQEYVL, the thermal melting temperature was 57.8 °C.

As for KIFDEILVNA, the thermal melting temperature amounted to 57.3 °C. Consider SILSEVQQA, for which the thermal melting temperature was 53.3 °C. Turning to ALAPGVRAV, the thermal melting temperature stood at 60.2 °C. Under VLMKDVQEI stands 44.8 °C. Under FLMDFIHQV stands 62.2 °C; under FLDEKTHEL, 56.8 °C; under FLLENSSKV, 51.7 °C.

The sequence FLLPIKTVGV showed a thermal melting temperature of 63 °C. With YLQDYTDRV, the thermal melting temperature was 55.9 °C.

FQDEINWRL returned a thermal melting temperature of 50.9 °C.

The sequence GLFSNDIPHV yielded a thermal melting temperature of 62.4 °C. QVFPGLLERV returned a thermal melting temperature of 60.8 °C. Under GLDPTQFRV stands 57.3 °C; under FILANEHNV, 40.8 °C. Next, FLEKLLPPV: 60 °C. Regarding ALLEPEFILKA, the thermal melting temperature was 48.4 °C. Under KLQEVGQVSV stands 52.3 °C.
